Where “and” joins values, the source holds several entries; their conditions need not be identical. Equal values may be shown once.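 Tested at 5 concentrations; 48 h exposure; 96-well plates; endpoints linearly interpolated, else capped at highest concentration. Abbreviation: GI50, concentration required for 50% inhibition of growth. TGI is the concentration that stops growth completely.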

The subject of the assay is NCI-H322M lung. Briefly: NCI tumour cell line growth inhibition, 48 h.
`CN(C)Cc1c[nH]c2nc[nH]c(=O)c12` yielded a TGI of more than 100 µM.
Still for that read-out and setting: the same measure for `CCCCCCCCCCCC(=O)OCC(O)CO` (stereo unspecified): more than 100 µM; for `COC(=O)C(C(=O)C(=O)Nc1nc2ccc(OC)cc2s1)c1cnc2ccccc2n1` (stereo unspecified): more than 100 µM; for `CCOC(=O)C(c1ccsc1)P(=O)(OCC)OCC` (stereo unspecified): 31.3 µM.
Turning to `COc1cccc(C2=C(c3cn(C)c4c(C)cccc34)C(=O)NC2=O)c1`, the GI50 is more than 25 µM and the TGI is more than 25 µM.
Turning to `O=C1C=CC(=O)N1c1ccc2ccccc2c1`, the GI50 was 16.8 µM and the TGI is 33 µM.
Molecule `CN(COC(=O)C(C)(C)C)c1nc(N(C)COC(=O)C(C)(C)C)nc(N(C)COC(=O)C(C)(C)C)n1` showed a TGI of more than 100 µM.
On the same count and under the same terms, the same measure for `CC12CC(Br)(Br)C(=O)C3C1CCCC32`: 29.2 µM; for `COc1ccccc1NC(=S)Nc1ccccn1`: more than 100 µM.
In the case of `Fc1nc(-c2c3ccccc3c3sc4ccccc4n23)nc(N2CCOCCOCCOCCOCC2)n1`, the TGI is more than 100 µM.
Still for that read-out and setting: the same measure for `CCOC1OC(CO[Si](C)(C)C(C)(C)C)C(O)CC1n1ccc(=O)[nH]c1=O` (stereo unspecified): more than 100 µM; for `CCC(=O)NC(NNS(=O)(=O)c1ccc(C)cc1)(C(F)(F)F)C(F)(F)F`: more than 100 µM; for `CC1=CC2=C(C=O)C(=O)[C@](C)(O)[C@@H](O)C2=CO1`: more than 100 µM.
Same read-out and setting: the same measure for `CCc1cccc(CC)c1Nc1nc(-c2ccccc2-c2ccccc2)cs1`: more than 100 µM.
For `O=C(/C=C/c1cccc(Cl)c1)c1ccccc1`, the GI50 is 14.5 µM and the TGI came out at 30.7 µM.
`N/N=C1\C(=O)N(c2ccc(Cl)c(Cl)c2)C(=O)C1C(=O)Nc1ccc(Cl)c(Cl)c1` (stereo unspecified): the TGI is more than 100 µM.
In turn, `CSc1nc2c(ncn2C2OC(CO)C(O)C(O)C2O)c(=O)n1C` (stereo unspecified) showed a TGI of more than 100 µM.
Regarding `CCOC(=O)CCC(NC(=O)c1ccc(Oc2nc3cc(N)cc(N)c3nc2-c2ccccc2)cc1)C(=O)OCC` (stereo unspecified), the GI50 is 67.9 µM and the TGI was more than 100 µM.
`C=C(Cl)C(Cl)(CBr)CCCC(C)C` (stereo unspecified) had a TGI of 31.9 µM.
`C(#Cc1ccccc1C#Cc1cnccn1)c1cnccn1`: the GI50 is 68.2 µM and the TGI was more than 100 µM.
The like results for `CCCCCCCCCCCCNCCCc1ccccc1` were, in that order, 8.12 µM and 22.8 µM.
The like results for `COC(=O)c1cc2c3cc(Cl)ccc3[nH]c2c2ncccc12` were, in that order, more than 100 µM and more than 100 µM.
Turning to `O=C(NC1C(=O)NC(CCc2ccccc2)NC1=O)OCc1ccccc1` (stereo unspecified), the TGI is more than 100 µM.
Same read-out and setting: the same measure for `CC1=C(C(=O)Nc2cc(F)c(F)cc2F)C(c2ccc(N(C)C)cc2)C(C(=O)Nc2cc(F)c(F)cc2F)=C(C)N1`: 97.4 µM; for `CC(C)OC(=O)NNc1c(Cl)cc(Cl)cc1Cl`: 99.4 µM.
Still for that read-out and setting: the same measure for `ON[C@@H]1C=C[C@H](n2cnc3c(NC4CC4)ncnc32)C1`: more than 100 µM; for `O=C(N/N=C\c1ccc([N+](=O)[O-])cc1)Nc1ccc2ccccc2c1`: more than 100 µM.
Same read-out and setting: the same measure for `Nc1ncnc2c1ncn2C1(CO)OC(CO)C(O)C1O` (stereo unspecified): more than 100 µM; for `CCOC(=O)/C(=C\n1c(=O)sc2ccccc21)C(=O)c1ccccc1`: more than 100 µM; for `CN(C)Cc1cc(C(=O)/C=C/c2ccc(Cl)cc2Cl)cc(CN(C)C)c1O`: 15.9 µM.
The molecule `O=[N+]([O-])/C(C(Cl)=C(Cl)Cl)=C(\NCc1ccccc1)Sc1ccccc1` displayed a TGI of more than 100 µM.
The same measure, in the same setting: the same measure for `O=C(CC(=O)n1nc(-c2ccccc2)c(N=Nc2ccc([N+](=O)[O-])cc2)c1-c1ccccc1)Nc1ccc(Cl)cc1`: more than 100 µM.
On the same count and under the same terms, the same measure for `CS(C)(=O)=Nn1c(=O)n2n(c1=O)[C@H]1CC[C@@H]2C1`: more than 100 µM.
Take `N#C/C(=C\c1ccccn1)c1nc2ccccc2o1`: the GI50 was 42.8 µM and the TGI was more than 100 µM.
`CC(=O)O[C@H]1[C@@H](N2CCCCC2)C[C@H]2[C@@H]3CC=C4C[C@@H](N5CCCC5)CC[C@]4(C)[C@H]3CC[C@@]21C` registered a TGI of more than 100 µM.
`CC(Oc1ccc(Cl)cc1Cl)C(=O)NN1C(=O)CC(=O)NC1=S` (stereo unspecified): the TGI is more than 100 µM.
In the case of `Cc1nc2sc(C(=O)Nc3cccc4c3OCCO4)c(N)c2cc1C(C)O` (stereo unspecified), the GI50 is 8.82 µM and the TGI was more than 100 µM.
As to `CC(=O)OC1CCC2(C)C(=CCC3C2CCC2(C)C3CC3OC4(CCC(C)CN4)C(C)C32)C1` (stereo unspecified), the TGI was more than 100 µM.
Same read-out and setting: the same measure for `N#Cc1ccccc1NC(=O)C(O)C(O)C(O)C(O)C=O` (stereo unspecified): more than 100 µM; for `COc1cc(Br)c(/C=N/N=C(\N)NO)cc1OC`: more than 100 µM; for `C#CCNC(CCCN=C(N)N)C(=O)O` (stereo unspecified): more than 100 µM.
Still for that read-out and setting: the same measure for `CC(C)(C)C1CC[C@H](O)[C@H]([C@@H](O)CC2CC(=O)N(c3ccccc3)C(=O)C2)C1` (stereo partly specified): more than 100 µM.
Still for that read-out and setting: the same measure for `Nc1ccc(C(=O)NN2C(=O)C(Cl)C2c2ccc(O)cc2)cc1` (stereo unspecified): 34.8 µM.
The molecule `COc1ccc(-n2c(C)nc3ccc(NC4OCC(OC(C)=O)C(OC(C)=O)C4OC(C)=O)cc3c2=O)cc1` (stereo unspecified) came in with a TGI of more than 100 µM.
`COc1cc(/C=C2\CC3C4CC=C5C[C@@H](N6CCCC6)CC[C@]5(C)C4CC[C@]3(C)[C@H]2OC(C)=O)ccc1OCCCn1ccnc1` (stereo partly specified): the GI50 is 2.19 µM and the TGI was found to be 5.93 µM.
Regarding `CC(C)CC1CC2C(=O)N(c3ccccc3)C(=O)C2c2[nH]c3ccccc3c21` (stereo unspecified), the TGI is more than 100 µM.
In the case of `O=C(N/N=C/c1coc2ccc(Cl)cc2c1=O)c1cc(O)c(O)c(O)c1`, the GI50 is 23.4 µM and the TGI was determined as 64.8 µM.
`Nc1nc2cc(COc3ccc(C(=O)O)cc3)ccc2nc1-c1ccccc1` displayed a TGI of more than 10 µM.
Still for that read-out and setting: the same measure for `COc1ccc(C)cc1-c1ccc(-c2cc(C)ccc2OC)o1`: more than 100 µM.
Take `O=S(=O)([O-])c1ccc(C=Nc2ccccc2)c([O-])c1.O=S(=O)([O-])c1ccc(C=Nc2ccccc2)c([O-])c1.[Co+2]`: the GI50 was more than 100 µM and the TGI was more than 100 µM.
`Cc1ccccc1-c1cc(=O)c2cc(C)c(C)c(C(=O)O)c2o1` yielded a TGI of more than 100 µM.
On the same count and under the same terms, the same measure for `O=C1/C(=C/c2ccccc2)CN(C(=O)/C=C/c2ccccc2)C/C1=C\c1ccccc1`: more than 94 µM.
As for `C=CC(=O)N1CCN(c2nc(OC[C@@H]3CCCN3C)nc3c(F)c(-c4nc(N)cc(C)c4C(F)(F)F)c(Cl)cc23)[C@@H](C)C1`, the GI50 is 6.12 µM and the TGI was 19.2 µM.
For the molecule `O=[N+]([O-])C(=C1c2ccccc2-c2ccccc21)[N+](=O)[O-]`, the TGI is more than 100 µM.
For `O=C(O)CC(CC(=O)O)n1cccc1`, the TGI is more than 100 µM.
On the same count and under the same terms, the same measure for `CCN(CC)CCNc1ccc2nc(C)n3c4ccc(OC)cc4c(=O)c1c23`: 16.9 µM.
In the case of `COc1cccc(/C=C2\COc3ccc(O)c(O)c3C2=O)c1OC`, the GI50 is 4.3 µM and the TGI came to 16.4 µM.
The matching figures for `Nc1ncnc2occ(-c3ccc(NC(=O)Nc4cccc(C(F)(F)F)c4)cc3)c12`: 4.23 µM and 13.9 µM.
As for `COc1ccc(-n2c(C)nc3ccc(NC4OC(COC(C)=O)C(OC(C)=O)C(OC(C)=O)C4OC(C)=O)cc3c2=O)cc1` (stereo unspecified), the TGI is more than 100 µM.
The same measure, in the same setting: the same measure for `CCCCCCCCCCCCNC(=S)OCCCC`: more than 100 µM; for `COC(=O)c1ccc(C)cc1C1CN=NC12Cc1c(C)cccc1C2=O` (stereo unspecified): more than 100 µM.
Same read-out and setting: the same measure for `Cc1nsc2cc(Cl)n(C)c(=O)c12`: more than 100 µM.
On to `COc1cc(/C=C/C(=O)c2cccc(-n3cc(-c4ccccc4)[nH]c3=O)c2)ccc1O`, for which the GI50 was 4.82 µM and the TGI turned out to be 15.7 µM.
The like results for `CCc1n(Cc2ccc3ccccc3c2)cc[n+]1Cc1ccc2ccccc2c1` were, in that order, 2.12 µM and 6.71 µM.
With `c1ccc([P+](Cc2ccc(C[P+](c3ccccc3)(c3ccccc3)c3ccccc3)s2)(c2ccccc2)c2ccccc2)cc1`, the TGI was more than 100 µM.
Regarding `C[C@H]1CCC/C=C/[C@@H]2C[C@H](O)C[C@H]2[C@H](O)C(O)C(O)C(=O)O1` (stereo partly specified), the GI50 was 2.49 µM and the TGI was more than 100 µM.
The like results for `Cc1cc(N)c2cc(NC(=O)/C=C\c3ccccc3Cl)ccc2n1` were, in that order, 1.48 µM and 2.85 µM.
The molecule `CC1(C)C2CCC1(C)C(NC(=O)COCCOCC(N)=O)C2` (stereo unspecified) displayed a TGI of more than 100 µM.
`CC[P+](C)(C)CC` displayed a TGI of more than 100 µM.
Still for that read-out and setting: the same measure for `CSc1cc(Cl)c(C(=O)Nc2ccccc2)cc1S(=O)(=O)n1cc[nH]c1=O`: more than 100 µM; for `CC[n+]1c(/C=C/c2cc(C(=O)OC)n3c2sc2ccccc23)sc2ccccc21`: 29.8 µM.
With `COc1ccc(C(=O)c2no[n+]([O-])c2C(=O)c2ccc(OC)cc2)cc1`, the GI50 is 35.7 µM and the TGI is more than 54.1 µM.
The like results for `CCCOC(=O)C1C(c2ccc(OC)cc2)NC(c2ccc(OC)cc2)C(C(=O)OCCC)S1(=O)=O` (stereo unspecified) were, in that order, more than 100 µM and more than 100 µM.
Turning to `CC1=CC(=O)c2ccc3c4ccccc4n(C)c3c2C1=O`, the TGI was more than 100 µM.
Still for that read-out and setting: the same measure for `CCOP(=O)(OCC)/C(C#N)=C/c1cccn1C`: more than 100 µM; for `CC1(C)CCOC(Sc2ccccc2)C1` (stereo unspecified): more than 100 µM.
Regarding `CC(C)(C)c1ccc(OCCCCCCCN2CCNCC2)cc1`, the GI50 is 1.55 µM and the TGI came out at 2.96 µM.
In the case of `c1ccc2c(c1)n1c(N3CCCC3)[n+]3ccccc3c1c1c3cccc[n+]3c(N3CCCC3)n21`, the TGI was more than 100 µM.
The same measure, in the same setting: the same measure for `CC1(c2cccc(C(F)(F)F)c2)CC(c2cccc(C(F)(F)F)c2)=C(C#N)C(=C(C#N)C#N)N1` (stereo unspecified): 30.1 µM; for `CCSc1c2cc(OC)ccc2nc2ccc(OC)cc12`: more than 91.2 µM.
On the same count and under the same terms, the same measure for `COc1ccc(/C=N/n2c(Cc3ccccc3)n[nH]c2=O)c(OC)c1`: more than 100 µM; for `CCc1cn(C2CC(CO)C(CO)S2)c(=O)[nH]c1=O` (stereo unspecified): more than 100 µM.
With `COc1ccc(-c2cc(-c3ccco3)c(C#N)c(=O)n2C2OC(COC(C)=O)C(OC(C)=O)C(OC(C)=O)C2OC(C)=O)cc1` (stereo unspecified), the GI50 is > 100 µM and 44.9 µM; the TGI is more than 100 µM.
For `CCn1cnc(C[C@H](NC(=O)[C@@H](NC(=O)Nc2cc(C(F)(F)F)cc(C(F)(F)F)c2)C(C)(C)C)C(=O)OC)c1`, the GI50 is more than 10 µM and the TGI is more than 10 µM.
On to `Cc1nc2ccccc2c(/C=C/c2ccc(F)cc2)c1C(=O)/C=C/c1ccccc1`, for which the GI50 is 3.32 µM and the TGI was more than 100 µM.
Molecule `NNC(=S)N/N=C(\c1nc2ccc(Cl)cc2[nH]c1=O)C(O)c1cccc([N+](=O)[O-])c1` (stereo unspecified) came in with a TGI of more than 100 µM.

The values above are taken from PubChem BioAssay (NCI).
